Whole data set: some 110,000 compounds, median “z-score” near -0.1, cut for the highest 2% near 2. Some of the results follow. Calls of active or inactive are those of the source.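 How the source made its calls: active means z-score in the third read window above 3 or below -3; inactive means the rest.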
target: Metabotropic glutamate receptor 8 (Rattus norvegicus) (UniProt P70579); assay: rat mGluR8 modulators via GIRK flux, primary screen, cell-based, thallium flux, HTS (AID 488969); conditions: HEK293 rat mGluR8, GIRK (G protein-gated inwardly rectifying potassium channel) thallium flux, FluoZin2; at 10 µM; stronger effect = higher value; submaximal glutamate (EC20) added with thallium
Chain of UniProt P70579 (P70579 whole entry, looked up): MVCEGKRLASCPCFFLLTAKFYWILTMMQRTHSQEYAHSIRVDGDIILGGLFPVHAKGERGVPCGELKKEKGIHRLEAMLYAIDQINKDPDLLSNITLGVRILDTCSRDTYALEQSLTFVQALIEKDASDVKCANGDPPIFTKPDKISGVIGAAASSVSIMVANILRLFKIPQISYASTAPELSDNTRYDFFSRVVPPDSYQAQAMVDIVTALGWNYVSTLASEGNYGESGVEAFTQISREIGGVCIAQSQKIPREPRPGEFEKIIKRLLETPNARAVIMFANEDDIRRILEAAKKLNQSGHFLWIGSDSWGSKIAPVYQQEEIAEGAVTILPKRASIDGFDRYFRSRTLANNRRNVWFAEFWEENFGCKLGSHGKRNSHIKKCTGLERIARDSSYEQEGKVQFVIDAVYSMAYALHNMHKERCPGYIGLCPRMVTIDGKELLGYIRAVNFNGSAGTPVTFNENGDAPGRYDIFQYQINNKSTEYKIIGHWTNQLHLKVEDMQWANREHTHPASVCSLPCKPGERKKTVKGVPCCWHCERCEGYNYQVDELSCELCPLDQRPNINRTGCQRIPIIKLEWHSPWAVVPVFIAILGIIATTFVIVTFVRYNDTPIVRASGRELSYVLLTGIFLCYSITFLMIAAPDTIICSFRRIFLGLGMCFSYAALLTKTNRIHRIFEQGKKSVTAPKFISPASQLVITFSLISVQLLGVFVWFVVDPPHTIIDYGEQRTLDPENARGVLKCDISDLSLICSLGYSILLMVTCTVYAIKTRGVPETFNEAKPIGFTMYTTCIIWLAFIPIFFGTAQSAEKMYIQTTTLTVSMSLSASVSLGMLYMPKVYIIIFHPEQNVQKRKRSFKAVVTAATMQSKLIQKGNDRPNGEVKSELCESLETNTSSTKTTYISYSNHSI

SMILES	z-score
COc1ccccc1CNC(=O)CN(c1ccc(C)cc1)S(=O)(=O)c1c(C)nn(C)c1C	-0.65
O=C(Cc1cccs1)N1CCC(c2nc3c(nnn3Cc3ccc(F)cc3)c(=O)[nH]2)CC1	-0.331
CCSc1nnc2n(N)c(=O)c3ccccc3n12	-0.443
COC(=O)c1ccc(OCC(O)CN2C(=O)NC(C)(C)C2=O)cc1 (configuration not stated)	-0.331
COc1ccc(CCNS(=O)(=O)c2ccc3c(c2)OCCO3)cc1	0.251
CCC(C)(C)NC(=O)C(c1ccco1)N(C(=O)CNC(=O)c1cccs1)c1cccnc1 (configuration not stated)	0.113
O=C1C2C3C=CC(CC3)C2C(=O)N1c1ccc2c(c1)OCO2 (configuration not stated)	-0.00168
CC1(C)N=C(SCC(=O)Nc2ccc(Cl)cc2Cl)C(c2ccccc2)=N1	-0.0911
C=CCn1c(CC(=O)OC)csc1=Nc1ccc(C(C)=O)cc1	0.286
CN(C)CCNCc1ccc(OC2CCCC2)cc1	-0.485
CCOc1ccc2nc(NC(=O)c3cccc(-c4cc5ccccc5oc4=O)c3)sc2c1	-0.225
CCOC(=O)Nc1ccc([N+](=O)[O-])cc1OC	-0.0696
CSc1ccccc1C(=O)NC1CCCC1	0.271
Cc1ccc(S(=O)(=O)N2CCCOC2)cc1	-0.142
O=C1c2cccnc2Nc2ccccc2N1CCCF	-0.0175
COC(=O)/C=C1/SC(=NC(=O)c2ccccc2)NC1=O	-0.201
Cc1ccc(S(=O)(=O)Nc2ccccc2CNc2cccc(C)n2)cc1	-0.278
O=C(NC1CCCC1)C(c1ccsc1)N(C(=O)Cc1cccs1)c1ccc(F)cc1 (configuration not stated)	0.287
O=C(Nc1ccc2c(c1)OCO2)C1CC(c2ccc(F)cc2)=NO1 (configuration not stated)	0.0283
CC1(C)CC(=O)C2=C(C1)N(Cc1ccco1)C(=O)C2(O)C(F)(F)F (configuration not stated)	0.906
FC(F)(F)c1cccc(OCCOCCn2cncn2)c1	0.491
Cc1ccc(C(=O)Nc2nc(=O)n(C(=O)c3ccccc3C)s2)cc1	-2.23

SMILES	z-score
CCOC(=O)c1nn(-c2ccc(F)cc2)c2nc(Nc3ccccc3)cc(=O)n12	-0.123
O=C(/C=C/c1ccc([N+](=O)[O-])cc1)NCc1cccnc1	-0.501
CCCNC(=O)C1CC(=O)N(c2ccc(OCC(=O)Nc3cccc(C)c3C)cc2)C1 (configuration not stated)	0.558
Cc1ccc(C)c(NC(=S)NC2CC3CCC(C2)N3Cc2ccco2)c1 (configuration not stated)	0.33
CCCc1cc(=O)[nH]c(SCC(=O)N(CC)C2CCS(=O)(=O)C2)n1 (configuration not stated)	-0.258
O=c1c(-c2ccc(Br)cc2)coc2c(CN3CCOCC3)c(O)ccc12	-0.5
CCN1CCCC1Cn1cnc2c([nH]c3cc(OC)ccc32)c1=O (configuration not stated)	-0.271
CC(C)Cn1c(-c2ccc(Cl)cc2)cnc1SCC(=O)N1CCOCC1	-0.0871
CN1CCc2cc3c(c4c2C1CC41CCC(=NO)CC1)OCO3 (configuration not stated)	0.139
Cc1ccnc(NC(=S)NC(=O)/C=C/c2ccc(Cl)cc2)c1	-0.596
CCn1c(=O)c(C(=O)NCCN2CCCCC2)c(O)c2ccccc21	0.12
O=C(O)c1cnc(-c2ccccc2)nc1Sc1ccc(Cl)cc1Cl	-0.66
Cc1cc2oc(=O)cc(Cn3nnc(-c4ccc(Cl)cc4)n3)c2cc1C(C)C	-0.447
C/C(CC(=O)Nc1ccc(N(C)C)cc1)=N\NC(=O)c1cnccn1	-0.137
COc1cccc(CNc2ccc(F)c(Cl)c2)c1	-0.0514
Cc1cc2c(cc(C(=O)N3CCC(C(=O)N4CCCC4)CC3)n2Cc2c(F)cccc2Cl)o1	-0.904
O=C(Nc1nnc(Cc2c[nH]c3ccccc23)s1)c1ccc(Cl)cc1Cl	-0.0402
CCc1ccc(-c2c(C)sc(NC(=O)C3CCC3)c2C#N)cc1	-0.0846
CCC(=O)Oc1ccc(C(=O)Nc2ccc3c(c2)C(=O)N(C2CCCCC2)C3=O)cc1	-0.504
O=C(COc1cccc(C(F)(F)F)c1)Nc1ccc(S(=O)(=O)N2CCCC2)cc1	-0.216
COc1ccc(C(CC(=O)NCCN2CCOCC2)NS(=O)(=O)c2ccc(C)cc2)cc1 (configuration not stated)	-0.382
O=C(Nc1ccccc1)N1CCN(c2nc3ccccc3s2)CC1	-1.2

SMILES	z-score
CCOCCOc1nc2c(c(=O)n(C)c(=O)n2C)n1CCc1ccccc1	-0.18
COc1ccc(CSC2=NCCN2)cc1Cl	0.41
COc1cc(S(=O)(=O)NC2CCCCC2C)ccc1Cl (configuration not stated)	-0.903
NC(=O)C1CCN(C(=O)COc2cccc3ccccc23)CC1	0.0874
O=c1cc(Nc2ccc3c(c2)OCCO3)[nH]c(=O)n1-c1ccc(Br)cc1	0.43
CCOC(=O)C1=C(C)Nc2ncnn2C1c1c[nH]c2ccccc12 (configuration not stated)	0.181
CN1C(=O)CC2(CC(=O)N(Cc3ccccc3)C2)C1=O (configuration not stated)	-0.0247
CCc1cccc2c(C(=O)CSc3nnc(-c4ccoc4C)n3C)c[nH]c12	-0.805
Cn1c(/N=C/c2c[nH]c3ccccc23)nc2ccccc21	1.1
COC(=O)c1ccc(/C=C/C(=O)c2ccc(OC)c(OC)c2)cc1	-0.225
CC(C)CNC(=O)COC(=O)CNC(=O)c1cc(Cl)cc([N+](=O)[O-])c1	-0.284
CCOc1cc(/C=C(/C#N)C(=O)Nc2ccc(O)cc2)cc(Br)c1O	-0.253
O=C(c1cn(-c2ccccc2)nc1-c1cccs1)N1CCN(c2ccc(F)cc2)CC1	0.133
O=C(CN1CCOc2ccccc21)N1CCN(c2cccc(Cl)c2)CC1	-0.327
CCOc1cc(N2CCOCC2)c(OCC)cc1NC(=O)COC(=O)c1cc(C)cc(C)c1	-0.471
CC(C)N1C(=S)SC(C)(C)C1n1oc(=O)n(-c2ccc(Cl)c(Cl)c2)c1=O (configuration not stated)	-0.253
COc1cccc(OC)c1C(=O)Nc1ccc(N2CCCCC2)cc1	1.15
Cc1cc(N2CCN(S(=O)(=O)c3ccc(C)c(C)c3)CC2)c2ccccc2n1	0.774
O=C(C1CCC1)N1CCc2cc(S(=O)(=O)NC3CCCc4ccccc43)ccc21 (configuration not stated)	0.00996
N#Cc1ccc(-c2nc3ccccc3nc2-c2ccccc2)cc1C#N	-0.246
CCS(=O)(=O)NCCc1csc(-c2cccnc2)n1	0.366
Cc1ccc2oc(=O)c3cnn(CC(=O)NC4CCN(Cc5ccccc5)CC4)c3c2c1	0.567

SMILES	z-score
Cc1ccc2c(Cl)cc(Cl)c(OCC(=O)Nc3cccc(S(=O)(=O)N(C)C)c3)c2n1	0.415
Cc1cc(NC(=O)c2cc(-c3ccc4c(c3)OCO4)on2)n(-c2ccccc2)n1	-1.07
COCCNC(=O)CN1C(=O)CSc2ncccc21	active: 3.57
CN1CCCC(OC(=O)COc2ccccc2)C1 (configuration not stated)	0.0377
Cc1cc(C)n(-c2nc3ccccc3nc2N2CCN(C(=O)c3ccc(Cl)cc3)CC2)n1	-1.16
CSCCC(NC(C)=O)C(=O)OCC(=O)N(c1ccccc1)c1ccccc1 (configuration not stated)	-0.357
CC(=O)NC1=C(C#N)C(c2ccccc2)c2c(ccc3ccccc23)O1 (configuration not stated)	-0.106
CC(CCc1ccccc1)NC(=O)c1ccco1 (configuration not stated)	0.0397
CN(C)c1nc(N)nc(CSc2ncc(Cl)cc2Cl)n1	0.472
N#CCSc1nc2ccc(N3CCCCC3)cc2c(=O)n1Cc1ccccc1	0.65
COCCn1nnnc1C(CC(C)C)N1CCN(c2ccccc2)CC1 (configuration not stated)	0.0468
CN(c1ccc(C(=O)NCc2ccccn2)cc1)S(C)(=O)=O	-0.362
CCOC(=O)N1CCN(C(=O)CS(=O)Cc2nc(-c3ccc(C)cc3)oc2C)CC1 (configuration not stated)	-0.212
COc1ccc(/C=C/C(=O)Nc2cc(S(=O)(=O)N3CCCCC3)ccc2N2CCCCC2)cc1OC	-0.459
CCOC(=O)c1c(NC(=O)c2nc3n(n2)C(C(F)F)CC(C)N3)sc2c1CCCC2 (configuration not stated)	-0.338
COc1ccc(N(CC(=O)NC(C)C)S(=O)(=O)c2ccc(NC(C)=O)cc2)cc1	-0.287
COC(=O)c1ccc(NC(=O)CN2CCN(c3ccccc3C)CC2)cc1	-0.287
CC(C)c1ccccc1-n1c(SCC(=O)N2CCN(c3ccccc3)CC2)nnc1-c1cccnc1	-0.532
Cc1ccccc1-n1ccnc1SCC(=O)O	-0.255
CCCCSc1nnc(NC(=O)CCc2ccccc2)s1	-0.304
COc1cc(C(=O)OCC(=O)Nc2ccc3c(c2)OC(F)(F)O3)ccc1OCc1c(C)noc1C	-0.513
COC(=O)C(C)N1C(=O)S/C(=C\c2cc(C)n(-c3ccccn3)c2C)C1=O (configuration not stated)	1.55

SMILES	z-score
CCC(Sc1nc2sc(C(=O)OC)c(C)c2c(=O)n1N)C(=O)N(CC)CC (configuration not stated)	-0.473
CCC(c1nnnn1Cc1ccc(OC)cc1)N(CCCO)Cc1cc2cc3c(cc2[nH]c1=O)OCO3 (configuration not stated)	active: 5.57
O=C(Nc1ccc(Cl)cc1)Nc1nnc(SCc2ccc(Cl)cc2)s1	-0.53
O=C(COC(=O)C1(c2ccc(F)cc2)CCCC1)Nc1ncc(C(F)(F)F)cc1Cl	0.214
COc1ccc(Nc2nc(N)nc(CSc3nnc(N)s3)n2)cc1	-0.571
O=C(Nc1nc2ccccc2s1)c1cc(-c2ccco2)nc2ccccc12	-2.17
O=C(COC(=O)c1ccccc1C(=O)c1ccc(Cl)cc1)NCCc1ccccc1	-0.906
COC(=O)CN1C(=S)N(c2ccc(OC)cc2)C(=O)/C1=C/c1cccs1	-0.151
O=C1C2C3c4ccccc4C(c4ccccc43)[C@@H]2c2nc3ccccc3n21 (some centres not stated)	-0.00722
Cc1cccc(C)c1NC(=O)CSc1nnc(-c2ccco2)c(-c2ccco2)n1	-0.26
CC(C)NS(=O)(=O)c1ccc(CCC(=O)Nc2ccc3c(c2)OCO3)cc1	-0.224
COCCNC(=O)c1snc2ccc(Cl)cc12	-0.262
COc1ccc(OC)c(NC2c3ncccc3C(=O)N2Cc2ccco2)c1 (configuration not stated)	0.571
CCCOc1ccc(N2C(=O)CC(SCCN)C2=O)cc1 (configuration not stated)	-0.0988
CC(=O)Nc1ccccc1-c1nc2ccccc2nc1OCC(=O)c1ccc(Br)cc1	-0.422
O=C1N/C(=C\c2ccccc2)c2ccccc21	-1.24
Cc1ccc(NC(=O)c2ccc(NCCCN3CCOCC3)c([N+](=O)[O-])c2)cc1Cl	0.0782
Cc1cc(=O)c2ccc3ccccc3c2[nH]1	-0.0487
Cn1c(Cn2nnc3ccccc32)nnc1SCC(=O)NCc1ccc2c(c1)OCO2	0.948

Reference: PubChem BioAssay AID488969 (Vanderbilt High Throughput Screening Facility, 2010)
